Assay [1] addresses T1, TRIM45 (endogenous, primary cultured mouse microglia) (mouse (endogenous in primary microglia)) (UniProt Q6PFY8).
T1 sequence: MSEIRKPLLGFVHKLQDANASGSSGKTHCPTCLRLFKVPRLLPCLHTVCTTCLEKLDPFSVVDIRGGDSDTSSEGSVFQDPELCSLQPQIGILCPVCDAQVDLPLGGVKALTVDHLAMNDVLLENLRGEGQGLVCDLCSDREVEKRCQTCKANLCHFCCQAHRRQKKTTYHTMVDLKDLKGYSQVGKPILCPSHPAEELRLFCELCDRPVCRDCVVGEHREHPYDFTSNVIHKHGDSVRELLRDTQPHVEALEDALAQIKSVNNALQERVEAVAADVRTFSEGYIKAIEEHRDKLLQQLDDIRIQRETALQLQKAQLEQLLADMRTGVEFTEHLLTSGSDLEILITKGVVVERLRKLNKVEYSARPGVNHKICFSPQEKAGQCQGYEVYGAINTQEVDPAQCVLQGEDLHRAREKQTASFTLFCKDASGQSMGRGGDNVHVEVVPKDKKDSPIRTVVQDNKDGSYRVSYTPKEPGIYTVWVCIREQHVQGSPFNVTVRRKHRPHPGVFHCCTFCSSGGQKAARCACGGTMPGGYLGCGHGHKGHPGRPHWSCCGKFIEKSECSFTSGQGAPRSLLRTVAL
Briefly: co-IP; primary cultured mouse microglia, endogenous proteins, with or without OGD/R (Fig. 3c).

The target of assay [2] is T2, HA-tagged TRIM45-C29A (catalytically inactive mutant) (UniProt Q9H8W5).
T2 sequence: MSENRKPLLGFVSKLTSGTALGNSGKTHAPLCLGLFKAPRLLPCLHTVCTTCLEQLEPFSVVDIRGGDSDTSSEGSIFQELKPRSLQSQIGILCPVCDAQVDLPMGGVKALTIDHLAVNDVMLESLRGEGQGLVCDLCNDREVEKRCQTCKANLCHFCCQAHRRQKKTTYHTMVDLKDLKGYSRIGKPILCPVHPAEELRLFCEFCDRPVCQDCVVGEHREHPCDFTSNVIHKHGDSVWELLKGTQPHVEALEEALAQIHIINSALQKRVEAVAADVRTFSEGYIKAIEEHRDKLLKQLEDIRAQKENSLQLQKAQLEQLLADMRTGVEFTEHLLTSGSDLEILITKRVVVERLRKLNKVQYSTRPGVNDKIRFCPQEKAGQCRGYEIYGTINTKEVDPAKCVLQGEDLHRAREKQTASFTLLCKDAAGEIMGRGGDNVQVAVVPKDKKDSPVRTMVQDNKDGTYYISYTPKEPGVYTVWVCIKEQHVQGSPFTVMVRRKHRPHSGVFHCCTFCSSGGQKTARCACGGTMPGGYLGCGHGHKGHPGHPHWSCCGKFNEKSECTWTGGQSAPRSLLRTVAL
Briefly: co-IP; HEK293T cells transfected with Flag-TAB2 and HA-tagged wild-type TRIM45 or TRIM45-C29A; IP with anti-HA beads, then immunoblot (Fig. 5c).

Assay [3] concerns the target T3, HA-tagged wild-type TRIM45 (tripartite motif-containing 45) (UniProt Q9H8W5).
T3 sequence: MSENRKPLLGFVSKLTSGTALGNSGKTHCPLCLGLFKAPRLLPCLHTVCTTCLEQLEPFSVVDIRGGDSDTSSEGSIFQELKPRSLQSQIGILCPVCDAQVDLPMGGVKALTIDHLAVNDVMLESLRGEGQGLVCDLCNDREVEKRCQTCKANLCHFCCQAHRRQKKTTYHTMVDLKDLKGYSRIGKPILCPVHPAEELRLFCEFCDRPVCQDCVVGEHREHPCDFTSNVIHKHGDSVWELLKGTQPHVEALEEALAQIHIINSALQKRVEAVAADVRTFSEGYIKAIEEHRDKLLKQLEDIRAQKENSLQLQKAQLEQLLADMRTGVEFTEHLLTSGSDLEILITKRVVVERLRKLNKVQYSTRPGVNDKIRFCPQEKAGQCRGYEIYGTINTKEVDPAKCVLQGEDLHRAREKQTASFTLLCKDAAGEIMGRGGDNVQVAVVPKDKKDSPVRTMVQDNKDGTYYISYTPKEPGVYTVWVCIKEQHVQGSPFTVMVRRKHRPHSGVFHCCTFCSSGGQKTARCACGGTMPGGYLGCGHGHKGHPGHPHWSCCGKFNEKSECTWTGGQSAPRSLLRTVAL
The experiment in a line: co-IP; HEK293T cells co-transfected with HA-TRIM45 and Flag-tagged partners, or with TAB2 or TRIM45 deletion mutants and the tagged partner (Fig. 3b, f, g); which protein was precipitated not given.

A further assay has as its target T4, Myc-tagged TAB2 (UniProt Q9NYJ8).
T4 sequence: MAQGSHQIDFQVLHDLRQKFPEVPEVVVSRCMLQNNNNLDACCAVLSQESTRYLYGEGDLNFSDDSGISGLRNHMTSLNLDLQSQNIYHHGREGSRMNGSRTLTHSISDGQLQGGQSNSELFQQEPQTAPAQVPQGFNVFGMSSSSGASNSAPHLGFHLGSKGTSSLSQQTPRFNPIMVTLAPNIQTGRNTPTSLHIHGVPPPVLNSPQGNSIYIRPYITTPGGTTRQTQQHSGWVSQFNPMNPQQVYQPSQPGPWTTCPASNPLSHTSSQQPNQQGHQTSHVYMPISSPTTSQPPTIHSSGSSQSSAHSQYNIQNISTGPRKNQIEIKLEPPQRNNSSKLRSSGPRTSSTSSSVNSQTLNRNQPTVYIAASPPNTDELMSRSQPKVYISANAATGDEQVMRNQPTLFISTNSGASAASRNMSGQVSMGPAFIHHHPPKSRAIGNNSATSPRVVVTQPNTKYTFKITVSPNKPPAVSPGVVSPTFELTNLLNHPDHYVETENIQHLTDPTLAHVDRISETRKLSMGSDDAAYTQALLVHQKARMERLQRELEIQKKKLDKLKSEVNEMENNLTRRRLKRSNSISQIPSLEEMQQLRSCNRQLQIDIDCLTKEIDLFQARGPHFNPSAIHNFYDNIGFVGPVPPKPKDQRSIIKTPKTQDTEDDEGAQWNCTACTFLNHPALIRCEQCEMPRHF
Briefly: co-IP; HEK293T cells transfected with Myc-TAB2, Flag-TAK1 and HA-tagged wild-type TRIM45 or TRIM45-C29A; IP with anti-Myc beads, then immunoblot (Fig. 5e). For orientation: In western blotting, separated proteins are transferred to a membrane and probed.

From article PMC8894463 come the findings set out here.

No constants are given. Whether binding was seen depends on the method and setting. Binding seen in cells or lysates may run through a third protein. Some results given as binding are weak or reduced against the parent protein; the word gives no strength. For some assays here: Where a sequence is shown, tags or fusion partners need not be part of it.

B1: TAB2 (endogenous, primary cultured mouse microglia) (protein, UniProt Q99K90 1-693)
chain: MAQGSHQIDFQVLHDLRQKFPEVPEVVVSRCMLQNNNNLDACCAVLSQESTRYLYGEGDLNFSDESGISGLRNHMTSLNLDLQSQNVYHHGREGSRVNGSRTLTHSVSDGQLHGGQSNNELFQQEPQTAPAQVPQGFNVFGMPSTSGASNSTPHLGFHLGSKGTSNLSQQTPRFNPIMVTLAPNIQTGRSTPTSLHIHGVPPPVLNSPQGNSIYIRPYITTPSGTARQTQQHSGWVSQFNPMNPQQAYQPSQPGPWTTYPASNPLPHTSTQQPNQQGHQTSHVYMPISSPTTPQPPTIHSSGSSQSSAHSQYNIQNISTGPRKNQIEIKLEPPQRNSSSKLRSSGPRTASTSSLVNSQTLNRNQPTVYIAASPPNTDEMISRSQPKVYISANATAGDEQGMRNQPTLFISTNSGPSAASRNMSGQVSMGPAFIHHHPPKSRVLGGNSATSPRVVVTQPNTKYTFKITVSPNKPPAVSPGVVSPTFELTNLLNHPDHYVETENIQHLTDPALAHVDRISEARKLSMGSDDAAYTQALLVHQKARMERLQRELEMQKKKLDKLKSEVNEMENNLTRRRLKRSNSISQIPSLEEMQQLRSCNRQLQIDIDCLTKEIDLFQARGPHFNPSAIHNFYDNIGFVGPVPPKPKDQRSTIKAPKTQDAEDEEGAQWNCTACTFLNHPALIRCEQCEMPRHF
Consider B1, for which the binding entry in assay [1] is recorded as “binds”.

B2: Flag-tagged TAB2 (protein, UniProt Q9NYJ8 1-693)
chain: MAQGSHQIDFQVLHDLRQKFPEVPEVVVSRCMLQNNNNLDACCAVLSQESTRYLYGEGDLNFSDDSGISGLRNHMTSLNLDLQSQNIYHHGREGSRMNGSRTLTHSISDGQLQGGQSNSELFQQEPQTAPAQVPQGFNVFGMSSSSGASNSAPHLGFHLGSKGTSSLSQQTPRFNPIMVTLAPNIQTGRNTPTSLHIHGVPPPVLNSPQGNSIYIRPYITTPGGTTRQTQQHSGWVSQFNPMNPQQVYQPSQPGPWTTCPASNPLSHTSSQQPNQQGHQTSHVYMPISSPTTSQPPTIHSSGSSQSSAHSQYNIQNISTGPRKNQIEIKLEPPQRNNSSKLRSSGPRTSSTSSSVNSQTLNRNQPTVYIAASPPNTDELMSRSQPKVYISANAATGDEQVMRNQPTLFISTNSGASAASRNMSGQVSMGPAFIHHHPPKSRAIGNNSATSPRVVVTQPNTKYTFKITVSPNKPPAVSPGVVSPTFELTNLLNHPDHYVETENIQHLTDPTLAHVDRISETRKLSMGSDDAAYTQALLVHQKARMERLQRELEIQKKKLDKLKSEVNEMENNLTRRRLKRSNSISQIPSLEEMQQLRSCNRQLQIDIDCLTKEIDLFQARGPHFNPSAIHNFYDNIGFVGPVPPKPKDQRSIIKTPKTQDTEDDEGAQWNCTACTFLNHPALIRCEQCEMPRHF
For B2, the binding result in assay [2] is on record as “no binding”; in assay [3] it was “binds”.

B3: Flag-tagged TAK1 (enzyme, UniProt O43318 1-606)
chain: MSTASAASSSSSSSAGEMIEAPSQVLNFEEIDYKEIEVEEVVGRGAFGVVCKAKWRAKDVAIKQIESESERKAFIVELRQLSRVNHPNIVKLYGACLNPVCLVMEYAEGGSLYNVLHGAEPLPYYTAAHAMSWCLQCSQGVAYLHSMQPKALIHRDLKPPNLLLVAGGTVLKICDFGTACDIQTHMTNNKGSAAWMAPEVFEGSNYSEKCDVFSWGIILWEVITRRKPFDEIGGPAFRIMWAVHNGTRPPLIKNLPKPIESLMTRCWSKDPSQRPSMEEIVKIMTHLMRYFPGADEPLQYPCQYSDEGQSNSATSTGSFMDIASTNTSNKSDTNMEQVPATNDTIKRLESKLLKNQAKQQSESGRLSLGASRGSSVESLPPTSEGKRMSADMSEIEARIAATTAYSKPKRGHRKTASFGNILDVPEIVISGNGQPRRRSIQDLTVTGTEPGQVSSRSSSPSVRMITTSGPTSEKPTRSHPWTPDDSTDTNGSDNSIPMAYLTLDHQLQPLAPCPNSKESMAVFEQHCKMAQEYMKVQTEIALLLQRKQELVAELDQDEKDQQNTSRLVQEHKKLLDENKSLSTYYQQCKKQLEVIRSQQQKRQGTS
Consider B3, for which the binding entry with Myc-tagged TAB2 was “binds”; in assay [3], “no binding”.
